{"source": "ChEMBL document CHEMBL4888484", "about": "“Replenishing the malaria drug discovery pipeline: Screening and hit evaluation of the MMV Hit Generation Library 1 (HGL1) against asexual blood stage Plasmodium falciparum ,using a nano luciferase reporter read-out” (2022)", "note": "The campaign covered roughly 150,000 compounds. About 540 (0.36%) showed an effect of 50% or more. Some of the results follow."}
{"system": "Plasmodium falciparum", "assay": "Primary screen in NF54 nanoGlo assay, in single point, at 2uM, 72h; a lower Z score goes with more inhibition", "format": "functional, Erythrocyte", "conditions": "timepoint 72 hour", "units": {"% Inhibition": "%"}}
{"molecule": "Fc1ccc(/C=C/c2nc3c(cnn3Cc3cccnc3)[nH]2)cc1", "% Inhibition": 1, "Z score": -0.15}
{"molecule": "COc1ccc(CN2CCC3(CC[C@@H]3O)CC2)cc1OC", "% Inhibition": -11, "Z score": 1.53}
{"molecule": "O=C(O)[C@H](CC1CCCCC1)N1Cc2ccccc2C1=O", "% Inhibition": -10, "Z score": 1.46}
{"molecule": "Cc1cc(=O)n2cc(Br)ccc2n1", "% Inhibition": 26, "Z score": -2.9}
{"molecule": "NC(=O)Cn1ccnc1C1CCN(c2nnc(-c3ccccc3)s2)CC1", "% Inhibition": 4, "Z score": -0.7}
{"molecule": "CN1C(=O)CN(C[C@H]2COc3ccccc3O2)C(=O)c2ccccc21", "% Inhibition": -25, "Z score": 3.36}
{"molecule": "Cc1nc([C@H](C)NS(=O)(=O)c2cccc3nsnc23)n[nH]1", "% Inhibition": -8, "Z score": 1.43}
{"molecule": "CNc1nc(Nc2ccc(C)c(C)c2)c2nccnc2n1", "% Inhibition": -2, "Z score": 0.41}
{"molecule": "Cc1ccc(CCNC(=O)N2CCCC[C@H]2c2nnc3n2CCCC3)c(C)c1", "% Inhibition": -7, "Z score": 1.15}
{"molecule": "CC(=O)N(c1nc(C)c(C(=O)Nc2ncc(C)s2)s1)C(C)C", "% Inhibition": 2, "Z score": -0.34}
{"molecule": "O[C@@H](c1ccncc1)c1ccc2c(c1)OCO2", "% Inhibition": -16, "Z score": 2.21}
{"molecule": "COCCN1CCC[C@H](c2nc(C)nn2Cc2ccc(Cl)cc2)C1", "% Inhibition": 1, "Z score": -0.18}
{"molecule": "COc1ccccc1N1CCN(C(=O)Cc2oc(-c3ccccc3)nc2CC(C)C)CC1", "% Inhibition": -3, "Z score": 0.5}
{"molecule": "O=C(NC1CCOCC1)N(Cc1ccsc1)CC(F)(F)F", "% Inhibition": -8, "Z score": 0.96}
{"molecule": "CCN1CC2(CCN(CCCO)CC2)C[C@@H](c2ccccc2)C1=O", "% Inhibition": -8, "Z score": 1.15}
{"molecule": "CC(C)[C@H](CCO)NCc1ccc(F)c(C#N)c1", "% Inhibition": -10, "Z score": 1.8}
{"molecule": "CCn1c2c(c(=O)n3ncc(C(=O)NCC4CCN(CCc5ccc(OC)cc5)CC4)c13)CN(Cc1ccc(OC)cc1)CC2", "% Inhibition": -39, "Z score": 3.59}
{"molecule": "CC(C)c1nc(CC(=O)NC[C@H]2CCCO2)cs1", "% Inhibition": -6, "Z score": 0.79}
{"molecule": "O=C(c1cc2ccccc2o1)N(C(=O)N1CCCCC1)c1ccc(Cl)cc1", "% Inhibition": -4, "Z score": 0.55}
{"molecule": "O=C(NCC1CC1)C1CCC(c2ccccc2)N(C(=O)Cc2cccs2)C1", "note": "(centres undefined)", "% Inhibition": -9, "Z score": 0.99}
{"molecule": "O=C(c1cccc2ccccc12)[C@H]1CCCN(Cc2nc3ccccc3[nH]2)C1", "% Inhibition": -8, "Z score": 0.76}
{"molecule": "O=C(Cc1ccccn1)NCc1cccnc1N1CCC[C@H](O)C1", "% Inhibition": 3, "Z score": -0.36}
{"molecule": "CCCn1nccc1-c1ccc(CN(C)C)cn1", "% Inhibition": -5, "Z score": 0.92}
{"molecule": "CCc1cc([C@@H]2CCCN2C(=O)Nc2cc(C)ccc2OC)on1", "% Inhibition": -7, "Z score": 0.96}
{"molecule": "O=S(=O)(N[C@H]1CCOC[C@@H]1O)c1cc(F)ccc1F", "% Inhibition": 10, "Z score": -1.38}
{"molecule": "N#Cc1ccc(OC[C@H]2C[C@@H](O)C2)c(F)c1", "% Inhibition": 5, "Z score": -0.93}
{"molecule": "Cc1cc(NC(=O)[C@H](C)OC(=O)CCc2ccccc2)on1", "% Inhibition": 0, "Z score": -0.01}
{"molecule": "CCOc1ccc(CNC(=O)Cn2c(CC)nc3onc(C)c3c2=O)cc1OC", "% Inhibition": 0, "Z score": -0.01}
{"molecule": "CC1CC[S+]([O-])CCN1Cc1sccc1Cl", "note": "(centres undefined)", "% Inhibition": 17, "Z score": -2.43}
{"molecule": "CCCC[C@H]1CN(c2cccc(-c3ccccc3)c2)C(=O)CN1C(=O)C(N)=O", "% Inhibition": -18, "Z score": 1.64}
{"molecule": "CCCC(=O)N1CCN(c2cc(Oc3ccccc3F)ncn2)C[C@@H]1C", "% Inhibition": -4, "Z score": 0.59}
{"molecule": "Cn1cccc1[C@H](CNS(=O)(=O)c1cccs1)N1CCCC1", "% Inhibition": -11, "Z score": 1.89}
{"molecule": "Cc1ccc(O[C@H]2CCOC[C@H]2NC(=O)c2cscn2)cn1", "% Inhibition": -3, "Z score": 0.61}
{"molecule": "CCOC(=O)c1cnn(-c2cc(C)ccc2C)c1CN1CCN(CCO)CC1", "% Inhibition": -4, "Z score": 0.6}
{"molecule": "CCOc1cc(N2CCO[C@@H](CN3CCOCC3)C2)ncn1", "% Inhibition": -7, "Z score": 0.68}
{"molecule": "COCCC(=O)N1CCN(Cc2ccc(Br)o2)CC1", "% Inhibition": -5, "Z score": 0.7}
{"molecule": "Cc1ccc(CN(Cc2ccccn2)C[C@H]2CCCNC2)s1", "% Inhibition": 6, "Z score": -0.86}
{"molecule": "Cc1nnc2n1CCN(Cc1c[nH]nc1-c1ccc(F)cc1)[C@H]2C(=O)N(C)C", "% Inhibition": -6, "Z score": 0.74}
{"molecule": "Cc1nonc1CN1C[C@H]2CCC[C@@H](C1)N(C)C2=O", "% Inhibition": 15, "Z score": -2.14}
{"molecule": "Cc1ccccc1N1C(=O)CN(C(=O)c2onc3c2CCCC3)C[C@@H]1C", "% Inhibition": -2, "Z score": 0.3}
{"molecule": "O=C1C[C@H](C(=O)N2CCn3c2nc2ccccc23)CN1c1cccc(Br)c1", "% Inhibition": -10, "Z score": 1.36}
{"molecule": "CC12N=NCC1C(=O)N(c1cccc(Cl)c1)C2=O", "note": "(centres undefined)", "% Inhibition": -11, "Z score": 1.74}
{"molecule": "O=C(Nc1cccc(-c2cccs2)c1)NC(C(=O)O)C1CCCOC1", "note": "(centres undefined)", "% Inhibition": 10, "Z score": -1.27}
{"molecule": "O=C(CCc1ncccn1)NC[C@@]12CCC[C@@H]1OCC2", "% Inhibition": -5, "Z score": 0.97}
{"molecule": "CN(Cc1ccccc1)c1cnn(CCCO)c(=O)c1", "% Inhibition": -3, "Z score": 0.64}
{"molecule": "CCn1nc(-c2ccncc2)nc1-c1cc(C)nc(C)n1", "% Inhibition": -19, "Z score": 2.25}
{"molecule": "COc1cccc(C(=O)N2CCN(C(=O)N3CCc4ccccc43)CC2)c1", "% Inhibition": -2, "Z score": 0.22}
{"molecule": "O=S(=O)(c1ccc(-c2noc(-c3ccc(F)c(Cl)c3)n2)cc1)N1CCCCC1", "% Inhibition": -3, "Z score": 0.49}
{"molecule": "CCOc1ncccc1C(=O)N[C@H]1CCN(Cc2c(C)noc2C)C[C@@H]1O", "% Inhibition": -15, "Z score": 1.42}
{"molecule": "C[C@H]1OCCN(C(=O)Cc2noc3ccccc23)[C@@H]1C(N)=O", "% Inhibition": -8, "Z score": 0.93}
{"molecule": "CCc1nc([C@H](C)NC2CCC3(CC2)OCCO3)cs1", "% Inhibition": -3, "Z score": 0.35}
{"molecule": "O=C(Cc1ccccc1Cl)N1CCCOCC1", "% Inhibition": -8, "Z score": 0.95}
{"molecule": "COc1ccc(F)c(CN2CCC([C@H](Cc3ccc(F)cc3F)N(C)C(=O)c3ccco3)CC2)c1", "% Inhibition": -11, "Z score": 1.34}
{"molecule": "CC(C)N(CCO)C(=O)c1cn(C[C@H]2COc3ccccc3O2)nn1", "% Inhibition": -8, "Z score": 1.19}
{"molecule": "Cc1ccc2c(c1)CN(Cc1cn(CC(N)=O)nn1)CCO2", "% Inhibition": -2, "Z score": 0.21}
{"molecule": "COc1ccc2nc(OC3CCNCC3)sc2c1", "% Inhibition": 19, "Z score": -2.41}
{"molecule": "Cc1ccc(CC2(NC(=O)[C@@H](c3cccc(F)c3)N(C)C)CC2)cc1", "% Inhibition": -6, "Z score": 1.14}
{"molecule": "C[C@@H](CN(C)c1c(Cl)cccc1C#N)C(=O)O", "% Inhibition": -17, "Z score": 1.7}
{"molecule": "Nc1nnc(CNC(=O)[C@H]2CCN(c3ccc(C(F)(F)F)cn3)C2)s1", "% Inhibition": -12, "Z score": 1.5}
{"molecule": "COC1(CNC(=O)c2oc(Br)cc2C)CCCCC1", "% Inhibition": -6, "Z score": 1.16}
{"molecule": "Cn1ccnc1-c1csc(NC(=O)C2CC3C=CC2C3)n1", "note": "(centres undefined)", "% Inhibition": -7, "Z score": 0.66}
{"molecule": "Cc1cccc(C(=O)N2CCCc3cc(C(=O)N4CCCC4)ccc32)c1", "% Inhibition": -10, "Z score": 1.57}
{"molecule": "COC[C@H]1CCCCN1C(=O)CCc1ccnn1C", "% Inhibition": -12, "Z score": 1.6}
{"molecule": "O=C(O)c1cc(NS(=O)(=O)c2ccc(F)cc2)ccc1N1CCN(Cc2ccccc2F)CC1", "% Inhibition": -9, "Z score": 1.67}
{"molecule": "CCN(CCNC(=O)c1csc2c1CCCCC2)c1ccccc1", "% Inhibition": -8, "Z score": 1.04}
{"molecule": "CCCc1nnc(NC(=O)N(C)Cc2nnc(C)o2)[nH]1", "% Inhibition": -10, "Z score": 1.54}
{"molecule": "Cc1cc(N2CCN(S(=O)(=O)c3ccc(F)cc3)CC2)nc(N2CCOCC2)n1", "% Inhibition": -7, "Z score": 0.93}
{"molecule": "COC[C@H](C)S(=O)(=O)NCc1noc(-c2ccccc2)n1", "% Inhibition": 16, "Z score": -1.97}
{"molecule": "Cc1noc(C)c1Cc1nc(CC(N)=O)nn1-c1ccc2c(c1)CCC2", "% Inhibition": -14, "Z score": 1.9}
{"molecule": "Cc1noc(C)c1[C@@H](C)CC(=O)NCc1ccn2ccnc2c1", "% Inhibition": -17, "Z score": 2.05}
{"molecule": "CNc1ccc(C(=O)N(Cc2ccnc(OC(C)C)c2)C2CC2)cn1", "% Inhibition": -9, "Z score": 1.8}
{"molecule": "CCC(C)(C)NC(=O)c1csc(-c2ccc(N3CCCC3)nc2)n1", "% Inhibition": -18, "Z score": 2.05}
{"molecule": "COc1c2c(cc3c1[C@H](CC(=O)Cc1ccccc1)[N+](C)(C)CC3)OCO2", "% Inhibition": -1, "Z score": 0.08}
{"molecule": "CCCc1nccnc1NC(=O)[C@H]1CC(C)(C)OC1(C)C", "% Inhibition": -3, "Z score": 0.38}
{"molecule": "CCc1nn(-c2ccccc2)c2ncc3cc(OC)c(OC)cc3c12", "% Inhibition": -4, "Z score": 0.5}
{"molecule": "CC(C)C(=O)Nc1cnc(-c2cccnc2)nc1", "% Inhibition": -15, "Z score": 2.46}
{"molecule": "CCN(CC)C(=O)c1cc(Br)c[nH]1", "% Inhibition": 5, "Z score": -0.68}
{"molecule": "O=C(Cc1c(Cl)cccc1Cl)N1CC[C@]2(CCOC2)C1", "% Inhibition": 39, "Z score": -5.23}
{"molecule": "C=C(C)C[C@H](C)C(=O)NCc1ccc(OCC(F)(F)F)nn1", "% Inhibition": -9, "Z score": 1.57}
{"molecule": "CC(NC(=O)NC(CCO)C(C)(C)C)C1CCOC1", "note": "(centres undefined)", "% Inhibition": -24, "Z score": 2.31}
{"molecule": "COc1ccc(CC(=O)N[C@H]2CCc3nnn(C)c3C2)c(C)c1", "% Inhibition": -9, "Z score": 1.44}
{"molecule": "COc1ccccc1CC(=O)Nc1cc(N2CCC(C)CC2)ncn1", "% Inhibition": -15, "Z score": 2.91}
{"molecule": "Cc1ccc(CNC(=O)C(=O)NC2CCCCC2)cc1", "% Inhibition": -9, "Z score": 1.17}
{"molecule": "CC(C)(C)c1ccc(C(C)(C)C)c(NC(=O)N[C@H]2CCCNC2=O)c1", "% Inhibition": -5, "Z score": 1.12}
{"molecule": "C=C(C)CN(CC)[C@@H](C)CCc1ccc(OC)cc1", "% Inhibition": 4, "Z score": -0.58}
{"molecule": "CCC(C)(C)NC(=O)CN(C)Cc1nc(C)c[nH]1", "% Inhibition": -14, "Z score": 1.94}
{"molecule": "CC(NC(=O)C1CCC(=O)NC1)c1ccc2c(c1)OCCO2", "note": "(centres undefined)", "% Inhibition": -12, "Z score": 1.06}
